PubChem BioAssay AID504339 (National Center for Advancing Translational Sciences (NCATS), 2011)
Out of some 390,000 compounds screened, about 17,000 (4.4%) were called active. This list was built around the results that the source calls inconclusive (neither active nor inactive); the mix of calls is not that of the screen. The call rests on the fitted dose curve; in most records, active means well fitted inhibition curve with a large enough effect; inconclusive means small, poorly fitted or top-dose-only effect; inactive means no such curve, though single readings can be large or run the other way. Potencies of inconclusive entries are doubtful fits and often do not repeat.

molecular target: Lysine-specific demethylase 4A (Homo sapiens) (UniProt O75164); assay: qHTS Assay for Inhibitors of JMJD2A-Tudor Domain; settings: AlphaScreen JMJD2A-Tudor / H3K4me3 peptide binding; activity change, negative = inhibition: at 114 µM (top of the series); further: nearly all actives have a fitted effect of over 50% in size
UniProt O75164, sequence (O75164 whole entry, looked up, the tested form may be a part): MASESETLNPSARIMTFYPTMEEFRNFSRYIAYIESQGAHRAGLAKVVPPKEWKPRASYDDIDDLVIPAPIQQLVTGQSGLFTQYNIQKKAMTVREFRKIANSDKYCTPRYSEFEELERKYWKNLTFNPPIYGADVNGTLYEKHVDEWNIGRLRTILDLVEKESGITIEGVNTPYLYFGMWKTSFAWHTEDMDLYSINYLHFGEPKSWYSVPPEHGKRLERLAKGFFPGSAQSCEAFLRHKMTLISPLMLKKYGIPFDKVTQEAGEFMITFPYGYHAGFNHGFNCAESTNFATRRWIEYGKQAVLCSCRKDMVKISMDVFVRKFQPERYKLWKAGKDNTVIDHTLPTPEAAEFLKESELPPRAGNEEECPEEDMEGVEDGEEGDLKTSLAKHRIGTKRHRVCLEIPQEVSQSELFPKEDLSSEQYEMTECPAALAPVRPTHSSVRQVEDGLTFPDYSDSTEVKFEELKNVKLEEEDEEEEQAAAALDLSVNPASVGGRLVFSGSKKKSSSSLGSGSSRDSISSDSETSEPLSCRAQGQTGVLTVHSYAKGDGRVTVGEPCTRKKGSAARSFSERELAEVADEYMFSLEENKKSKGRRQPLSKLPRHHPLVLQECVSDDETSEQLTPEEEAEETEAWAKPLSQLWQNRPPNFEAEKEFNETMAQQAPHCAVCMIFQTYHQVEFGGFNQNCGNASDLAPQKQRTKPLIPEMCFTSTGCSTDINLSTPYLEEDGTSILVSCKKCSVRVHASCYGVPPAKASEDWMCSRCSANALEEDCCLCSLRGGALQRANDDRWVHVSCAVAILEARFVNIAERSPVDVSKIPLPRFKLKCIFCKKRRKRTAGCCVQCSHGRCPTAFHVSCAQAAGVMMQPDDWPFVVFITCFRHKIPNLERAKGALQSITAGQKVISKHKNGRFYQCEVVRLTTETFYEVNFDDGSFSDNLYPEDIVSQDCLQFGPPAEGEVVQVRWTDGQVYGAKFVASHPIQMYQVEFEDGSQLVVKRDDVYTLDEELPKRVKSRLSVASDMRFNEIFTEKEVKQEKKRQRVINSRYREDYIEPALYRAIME
On the % scale 0 is the no-effect control and ±100 the full control effect; potency means the concentration at half of the fitted maximal effect; tags describe the fitted curve by direction and shape.

Structure (SMILES)	Potency	activity change, negative = inhibition
CCOC(=O)N1CCc2c(sc(NCc3cccc(F)c3)c2C(=O)Nc2ccccc2OCC)C1	inconclusive: 12.6 µM [inhibitor, partial curve, poor fit]	
CC(C)CCN1C(=O)c2ccc(C(=O)NCc3ccccn3)cc2C1=O	inconclusive: 35.5 µM [inhibitor, single point]	
C=CCn1c(-c2sccc2C)n[nH]c1=S	active: 7.08 µM	
Cc1ccc(Nc2c([N+](=O)[O-])ccc3c2=NC2(CCCCC2)N=3)cc1	inconclusive: 3.98 µM [inhibitor, full curve]	
CC(C)CN(CCCNC(=O)Cn1ncc2c3ccccc3n(C)c2c1=O)CC(C)C	inactive	
Oc1ccc(-c2cnns2)c(O)c1	active: 0.794 µM	
Cc1ccc(C)c(-n2c(SCC(N)=O)nnc2-c2ccccn2)c1	active: 79.4 µM	
CCCCCOc1ccc(NC2=CC(=O)CCC2)cc1	inconclusive: 89.1 µM [inhibitor, partial curve]	
CCN1C(=O)[C@H]2[C@@H](c3ccc(-c4ccc(F)cc4)cc3)N[C@@](C)(C(=O)OC)[C@H]2C1=O	inactive	
Cc1ccc(OCC(=O)N/N=C/C=C/c2ccco2)c(Br)c1	inconclusive: 39.8 µM [inhibitor, partial curve]	
CCOc1ccc2[nH]c3c(c2c1)CNCC3	inconclusive: 44.7 µM [inhibitor, partial curve]	
Cc1c(Cl)cccc1NC(=O)CN1CCN(CCN=CC2=C(O)CC(c3ccccc3)CC2=O)CC1 (stereo not given)	inactive	
Cc1oc2c(cc(NS(=O)(=O)c3ccc(Cl)cc3)c3ccccc32)c1C(=O)O	inconclusive: 79.4 µM [inhibitor, partial curve]	
Cc1nc(CNC(=O)C2CCC(=O)N(Cc3cccc(F)c3)C2)sc1C (stereo not given)	inactive	
CC[N+](C)(CC)CC(=O)OCC1C(C)C=C(C)CC1C (stereo not given)	inconclusive: 35.5 µM [inhibitor, partial curve]	
COc1ccccc1C(=O)NCCC(=O)Nc1ncccc1O	inconclusive: 70.8 µM [inhibitor, partial curve, poor fit]	
NC(C(=O)O)c1nn[nH]n1 (stereo not given)	active: 10 µM	
COc1ccc(C(=O)n2cnnc2N)cc1	inactive	
CCOC(=O)Cn1cnc2c(nnn2-c2ccc(F)cc2)c1=O	inactive	
N#Cc1c(NCCN)nc(NCc2ccccc2)c2c1CCN(Cc1ccccc1)C2	inconclusive: 56.2 µM [inhibitor, partial curve]	
C=CCOc1ccc(CN(C)CC(=O)Nc2ccc3c(c2)CCC3)cc1	active: 14.1 µM	
COc1ccc(C2Sc3ccccc3NC3=C2C(=O)c2ccccc23)c(OC)c1OC (stereo not given)	active: 14.1 µM	
CCN1CCN(C(c2ccccc2)c2nnnn2Cc2ccccc2)CC1 (stereo not given)	inactive	
CC(=O)Oc1ccccc1C(=O)C=Cc1cccc([N+](=O)[O-])c1	inconclusive: 100 µM [inhibitor, partial curve]	

Structure (SMILES)	Potency	activity change, negative = inhibition
CCCCCCSc1cccc(-c2nc3ccc(C)cn3c2NC2CCCCC2)c1	inconclusive: 1.41 µM [inhibitor, full curve, poor fit]	
O=C(COc1ccccc1)Nc1nnc(-c2ccccc2Cl)o1	active: 22.4 µM	
CC(=O)c1c(C)[nH]c(C(=O)OCC(=O)N2CCN(S(=O)(=O)c3ccc(C)cc3C)CC2)c1C	inconclusive: 79.4 µM [inhibitor, single point]	
COc1ccc(C)cc1S(=O)(=O)N1CCN(Cc2ccccc2)CC1	inconclusive: 56.2 µM [inhibitor, partial curve]	
CCn1cc(CCCC(=O)NCc2ccc(OC)cc2)c2ccccc21	inconclusive: 31.6 µM [inhibitor, partial curve]	
O=Cc1cn(CC(O)Cn2cc(C=O)c3ccccc32)c2ccccc12	inactive	
O=C1CCCC2=C1C(c1ccc(Cl)cc1)C1C(=O)c3ccccc3C1=N2 (stereo not given)	inconclusive: 31.6 µM [inhibitor, partial curve]	
COC(=O)c1ccc(Cn2cnc3c(sc4nc(N5CCOCC5)c5c(c43)CCCC5)c2=O)o1	inconclusive: 50.1 µM [inhibitor, partial curve]	
CCN1C(=O)/C(=C\N(C)C)S/C1=N\S(=O)(=O)c1ccccc1	inconclusive: 56.2 µM [inhibitor, partial curve]	
CN(C(=O)CSc1nc2cc([N+](=O)[O-])ccc2n1-c1ccc(F)cc1)C1CCS(=O)(=O)C1 (stereo not given)	active: 79.4 µM	
CC(C)(C)OC(=O)C[C@@H]1C/C=C\C[C@@H](CC(=O)N(CCO)Cc2ccccc2)C(=O)N[C@H](Cc2c[nH]c3ccccc23)COC1=O	inconclusive: 89.1 µM [inhibitor, partial curve]	
COc1ccccc1NS(=O)(=O)c1ccc(NN=C2CCCCC2)c([N+](=O)[O-])c1	inconclusive: 7.94 µM [inhibitor, full curve]	
Cc1c(C2=CCN(S(=O)(=O)c3ccc(Cl)cc3)CC2)c2ccccc2n1C	inconclusive: 28.2 µM [inhibitor, partial curve]	
Cc1c(-c2ccccc2)c(P(=O)(N2CCOCC2)N2CCOCC2)c2ccccn12	inconclusive: 89.1 µM [inhibitor, single point]	
CN1CCN(C(CNC(=O)C(=O)Nc2ccc3c(c2)OCO3)c2ccc(F)cc2)CC1 (stereo not given)	inactive	
COc1cc(OC)cc(C(=O)N2CCN(C3CCN(Cc4ccccc4)CC3)CC2)c1	active: 1.12 µM	
CC1CCN(Cc2c(O)ccc3c(=O)c(-c4cccc(Cl)c4)c(C(F)(F)F)oc23)CC1	inactive	
Nc1nc2ccc(C(=O)Nc3ccc(N4CCOCC4)cc3)cc2s1	inconclusive: 56.2 µM [inhibitor, partial curve]	
O=C(Cn1c(=O)n(-c2cccc(Cl)c2)c(=O)c2sc3ccccc3c21)N1CCCC1	inactive	
CC(=O)OC1OCCOC1NC(=S)NCc1ccco1 (stereo not given)	inconclusive: 100 µM [inhibitor, single point]	
O=C(Nc1ccc(N2CCCC2)cc1)c1ccccc1F	inconclusive: 50.1 µM [inhibitor, partial curve]	
Nc1cc(=O)[nH]c(SCc2cccc3ccccc23)n1	inactive	
COc1cc(CNCc2cccnc2)ccc1OCc1ccccc1	inactive	
CC1C(=O)CC(c2ccc([N+](=O)[O-])cc2)NC1c1ccc([N+](=O)[O-])cc1 (stereo not given)	inconclusive: 56.2 µM [inhibitor, partial curve, poor fit]	

Structure (SMILES)	Potency	activity change, negative = inhibition
CCOc1ccc(C(=O)c2nc3c(n2O)CCCCC3)cc1	inconclusive: 89.1 µM [inhibitor, single point]	
CCCn1c(C(C)Nc2nc(-c3ccc(Cl)c([N+](=O)[O-])c3)cs2)nc2cc(Cl)c(N3CCCCC3)cc21 (stereo not given)	inconclusive: 44.7 µM [inhibitor, partial curve]	
Cc1ccc(C(=O)NC(=S)NNC(=O)c2ccccc2[N+](=O)[O-])cc1	active: 56.2 µM	
Cc1cc(Br)ccc1OCCn1ccnc1	active: 4.47 µM	
Cc1cccc(Cn2cc(C(=O)Nc3ccc(F)c(C(F)(F)F)c3)ccc2=O)c1	inactive	
CCOC(=O)c1ccc(S(=O)(=O)N2CCN(C(=O)c3cccc(S(=O)(=O)N4CC(C)OC(C)C4)c3)CC2)cc1 (stereo not given)	inconclusive: 100 µM [inhibitor, partial curve, poor fit]	
Cc1cc(Cl)c(OCCOCCN2CCCC(C)C2)c(Br)c1 (stereo not given)	inconclusive: 7.08 µM [inhibitor, full curve, poor fit]	
c1ccc(N2CCN(c3ccccc3)C2c2ccncc2)cc1	inconclusive: 56.2 µM [inhibitor, partial curve]	
CCOC(=O)c1csc(N/N=C2\CCCc3ccccc32)n1	inconclusive: 63.1 µM [inhibitor, partial curve, poor fit]	
Cc1ccccc1-c1cc(C(=O)Nc2nc3c(s2)CCCC3)c2ccccc2n1	inconclusive: 4.47 µM [inhibitor, full curve, poor fit]	
CCCCCC(/C=N/Nc1ccc(S(=O)(=O)N2CCOCC2)cc1[N+](=O)[O-])=C\c1ccccc1	inconclusive: 2.82 µM [inhibitor, full curve]	
COCCCn1c(=O)/c(=C\c2ccccc2OC(C)C)s/c1=C(/C#N)C(=O)Nc1ccc(C(=O)O)cc1	inconclusive: 50.1 µM [inhibitor, partial curve]	
CC1CCC(NC(=O)c2cc(S(=O)(=O)N(C)C)ccc2N2CCCC2)CC1 (stereo not given)	inactive	
Brc1cccc(OCCSc2ncccn2)c1	inconclusive: 7.08 µM [inhibitor, single point]	
O=C(CN1CCCc2ccccc21)NC(=O)NC1CCCCC1	active: 31.6 µM	
CC1CCc2c(sc3[nH]c(=S)n(C)c(=O)c23)C1 (stereo not given)	inconclusive: 15.8 µM [inhibitor, full curve, poor fit]	
CCC(CO)Oc1cc(NC(=O)c2cccc(Cl)c2)c2ncn(C(C)C)c2c1 (stereo not given)	inconclusive: 70.8 µM [inhibitor, single point]	
CCOC(=O)c1sc(=S)n(-c2ccc(F)c(F)c2)c1N	inconclusive: 63.1 µM [inhibitor, partial curve, poor fit]	
Cc1ccc(SCC(=O)OCC(=O)N(CCC#N)c2ccccc2)cc1C		inconclusive: -48.3% [inhibitor]
CCCCSc1nnc(-c2ccccc2)c2ccccc12	inactive	
O=C(c1ccc(Cn2cc(Br)cn2)cc1)N1CCN(c2ccccc2)CC1	inconclusive: 63.1 µM [inhibitor, partial curve, poor fit]	
O=C1c2ccccc2C(=O)N1CCOc1ccccc1Br	inactive	
